The test system of one test is HSkMC. Briefly: cytotoxicity call (relative viability < 0.9). Particulars: 10 µM.
The subject of another test is HepG2. Nature of the test: cytotoxicity call (relative viability < 0.9). Particulars: 10 µM.
In a further test the test system is S. aureus RN4220. Briefly: growth inhibition call (relative growth <= 0.2). Particulars: 50 µM.

This is one part of the list.

In the case of `COc1cccc(-c2cn(CC[C@H]3CC[C@H](NC(=O)CN(C)C)[C@H](CO)O3)nn2)c1`, the cytotoxicity call with HSkMC and in the test on HepG2 was “inactive” in each case. Further, the growth inhibition call in the test with S. aureus RN4220 is “inactive”.

Take `COC(=O)[C@@H](NC(=O)c1cccc(NC=O)c1O)[C@@H](C)O`: the cytotoxicity call with HSkMC and in the test on HepG2 was “inactive” throughout. The growth inhibition call in the test with S. aureus RN4220 was “inactive”.

As to `COc1ccc(S(=O)(=O)N(C)C[C@@H]2Oc3ccc(NC(=O)CCN4CCOCC4)cc3C(=O)N([C@@H](C)CO)C[C@@H]2C)cc1`, the cytotoxicity call in the test with HSkMC and with HepG2 was “inactive” in each case. In the test with S. aureus RN4220, the growth inhibition call is “inactive”.

As for `C[C@@H]1CCCCO[C@H](CN(C)Cc2ccc(C(F)(F)F)cc2)[C@H](C)CN([C@@H](C)CO)C(=O)c2cc(NC(=O)c3ccccc3)ccc2O1`, in the test on HSkMC, the cytotoxicity call is “inactive”. In the test on HepG2, the cytotoxicity call was “active”. The growth inhibition call in the test with S. aureus RN4220 is “inactive”.

With `CC[C@@H](N)c1ccc(C)cn1`, the cytotoxicity call in the test on HSkMC and in the test with HepG2 was “inactive” throughout. The growth inhibition call in the test with S. aureus RN4220 is “inactive”.

Consider `OCCN(CCO)c1nc(N2CCCCC2)c2nc(N(CCO)CCO)nc(N3CCCCC3)c2n1`, for which the cytotoxicity call in the test on HSkMC and in the test with HepG2 was “inactive” each time. For the same compound, the growth inhibition call in the test with S. aureus RN4220 was “inactive”.

For the compound `C[C@@H]1CN([C@H](C)CO)C(=O)c2cc(NC(=O)Cc3ccccc3)ccc2O[C@@H](C)CCCCO[C@H]1CN(C)S(=O)(=O)c1ccc(Cl)cc1`, the cytotoxicity call with HSkMC and in the test on HepG2 was “inactive” in each case. In addition, in the test on S. aureus RN4220, the growth inhibition call is “inactive”.

In the case of `COc1cccc(C#Cc2ccc3c(c2)O[C@H](CN(C)C(C)=O)[C@@H](C)CN([C@@H](C)CO)S3(=O)=O)c1`, the cytotoxicity call with HSkMC and in the test with HepG2 was “inactive” each time. In addition, the growth inhibition call with S. aureus RN4220 was “inactive”.

Take `CN(C)CC(=O)N[C@H]1CC[C@@H](CC(=O)NCCN2CCCCC2)O[C@@H]1CO`: the cytotoxicity call in the test with HSkMC and in the test on HepG2 was “inactive” in each case. The growth inhibition call in the test with S. aureus RN4220 is “inactive”.

Regarding `C[C@H]1CN([C@@H](C)CO)C(=O)Cc2cc(NC(=O)CCN3CCOCC3)ccc2O[C@H]1CN(C)Cc1ccncc1`, the cytotoxicity call in the test with HSkMC and with HepG2 was “inactive” each time. In addition, the growth inhibition call with S. aureus RN4220 is “inactive”.

Regarding `Cl.N#Cc1ccc2[nH]cc(CCCCN3CCN(c4ccc5oc(C(N)=O)cc5c4)CC3)c2c1`, in the test with HSkMC, the cytotoxicity call was “inactive”. The cytotoxicity call in the test on HepG2 is “active”. Also, the growth inhibition call with S. aureus RN4220 was “inactive”.

As to `C[C@H]1CN([C@@H](C)CO)S(=O)(=O)c2ccc(C#CC3(O)CCCC3)cc2O[C@H]1CN(C)C(=O)Cc1cccnc1`, the cytotoxicity call with HSkMC and in the test on HepG2 was “inactive” each time. In the test with S. aureus RN4220, the growth inhibition call was “inactive”.

`COc1ccc(NC(=O)N(C)C[C@H]2Oc3c(NC(=O)c4cc(C)nn4C)cccc3C(=O)N([C@H](C)CO)C[C@@H]2C)cc1`: the cytotoxicity call in the test with HSkMC and in the test with HepG2 was “inactive” each time. Moreover, the growth inhibition call in the test with S. aureus RN4220 was “inactive”.

Turning to `C[C@@H]1CN([C@H](C)CO)C(=O)Cc2cc(NC(=O)Nc3cccc4ccccc34)ccc2O[C@H]1CN(C)CC1CCCCC1`, the cytotoxicity call in the test with HSkMC and in the test with HepG2 was “inactive” in each case. Further, the growth inhibition call in the test with S. aureus RN4220 was “inactive”.

`Cc1ccc(S(=O)(=O)Nc2ccc3c(c2)C(=O)N([C@H](C)CO)C[C@@H](C)[C@@H](CN(C)CC2CCCCC2)OCCCC[C@@H](C)O3)cc1`: the cytotoxicity call in the test with HSkMC was “inactive”. The cytotoxicity call in the test with HepG2 was “active”. Further, the growth inhibition call in the test with S. aureus RN4220 was “inactive”.

`O=C(O)c1cccc(-c2ccco2)c1`: the cytotoxicity call in the test with HSkMC and with HepG2 was “inactive” throughout. Besides, the growth inhibition call in the test with S. aureus RN4220 was “inactive”.

As for `COc1cc(OC)c(NC(=O)Cn2c(=O)n(-c3ccc(CC(=O)NC[C@H]4CCCO4)cc3)c(=O)c3ccccc32)cc1Cl`, the cytotoxicity call in the test on HSkMC and in the test with HepG2 was “inactive” each time. For the same compound, the growth inhibition call in the test with S. aureus RN4220 is “inactive”.

For the compound `C[C@@H]1CN([C@H](C)CO)C(=O)c2cc(NS(=O)(=O)c3ccc(F)cc3)ccc2O[C@@H](C)CCCCO[C@@H]1CN(C)C(=O)Cc1ccccc1`, the cytotoxicity call with HSkMC and in the test on HepG2 was “inactive” in each case. Moreover, the growth inhibition call in the test on S. aureus RN4220 was “inactive”.

For `Cc1ccc(S(=O)(=O)Nc2ccc3c(c2)C(=O)N([C@H](C)CO)C[C@@H](C)[C@@H](CN(C)C(=O)CCC(F)(F)F)OCCCC[C@@H](C)O3)cc1`, the cytotoxicity call in the test on HSkMC and with HepG2 was “inactive” throughout. Further, the growth inhibition call in the test on S. aureus RN4220 was “inactive”.

In the case of `O=C(C[C@@H]1C[C@@H]2c3cc(NS(=O)(=O)c4ccc(F)cc4)ccc3O[C@@H]2[C@@H](CO)O1)NC1CCCCC1`, the cytotoxicity call in the test with HSkMC and in the test with HepG2 was “inactive” throughout. Moreover, the growth inhibition call in the test with S. aureus RN4220 was “inactive”.

Regarding `C/C=C/c1ccc2c(c1)O[C@H](CN(C)Cc1ccc(C(=O)O)cc1)[C@@H](C)CN([C@H](C)CO)S2(=O)=O`, the cytotoxicity call in the test with HSkMC and in the test on HepG2 was “inactive” each time. Also, in the test with S. aureus RN4220, the growth inhibition call was “inactive”.

Regarding `O=S1(=O)CCCCN1`, the cytotoxicity call in the test with HSkMC and in the test with HepG2 was “inactive” in each case. Moreover, the growth inhibition call in the test on S. aureus RN4220 was “inactive”.

With `C[C@@H]1CN([C@H](C)CO)C(=O)c2cc(NS(=O)(=O)c3ccc(F)cc3)ccc2O[C@@H](C)CCCCO[C@@H]1CN(C)C(=O)c1ccccc1`, the cytotoxicity call in the test on HSkMC and in the test with HepG2 was “inactive” in each case. For the same compound, the growth inhibition call in the test with S. aureus RN4220 was “inactive”.

For `O=C(NCCN1CCOCC1)C(=O)NC[C@H]1COc2ccccc2O1`, the cytotoxicity call in the test on HSkMC and with HepG2 was “inactive” throughout. Moreover, the growth inhibition call in the test on S. aureus RN4220 is “inactive”.

As to `C[C@H]1CN([C@@H](C)CO)C(=O)c2cc(-c3cccc(C(=O)N(C)C)c3)cnc2O[C@H]1CN(C)S(=O)(=O)c1ccc(F)cc1`, the cytotoxicity call in the test on HSkMC and with HepG2 was “inactive” in each case. The growth inhibition call in the test on S. aureus RN4220 is “inactive”.

Consider `O=C(Nc1cccc2cccnc12)[C@@H]1[C@H](c2ccc(I)cc2)CC(=O)N1C(=O)OCc1ccccc1`, for which the cytotoxicity call in the test with HSkMC and with HepG2 was “inactive” each time. The growth inhibition call with S. aureus RN4220 is “inactive”.

Take `O=C(C[C@@H]1C[C@H]2c3cc(NC(=O)Nc4ccc(C(F)(F)F)cc4)ccc3O[C@H]2[C@H](CO)O1)NCc1ccc(Cl)cc1`: the cytotoxicity call in the test with HSkMC is “active”. The cytotoxicity call with HepG2 was “inactive”. Besides, the growth inhibition call in the test with S. aureus RN4220 was “inactive”.

In the case of `CC(C)NC(=O)Nc1cccc2c1O[C@@H](CN(C)S(=O)(=O)c1cccs1)[C@H](C)CN([C@H](C)CO)C2=O`, the cytotoxicity call in the test on HSkMC and in the test with HepG2 was “inactive” each time. Further, in the test with S. aureus RN4220, the growth inhibition call was “inactive”.

`CNC[C@H]1Oc2ccc(NS(=O)(=O)c3cn(C)cn3)cc2CC(=O)N([C@H](C)CO)C[C@H]1C`: the cytotoxicity call with HSkMC and with HepG2 was “inactive” throughout. In addition, the growth inhibition call in the test on S. aureus RN4220 is “inactive”.

`O=C(NC(Cc1cc(=O)[nH]c2ccccc12)C(=O)O)c1ccc(Cl)cc1` (stereo unspecified): the cytotoxicity call in the test on HSkMC is “inactive”. For the same compound, the cytotoxicity call in the test with HepG2 is “active”. In addition, in the test on S. aureus RN4220, the growth inhibition call was “inactive”.

With `COc1ccc(S(=O)(=O)Nc2cccc3c2O[C@H](CN(C)S(=O)(=O)c2cccs2)[C@@H](C)CN([C@H](C)CO)C3=O)cc1`, the cytotoxicity call in the test with HSkMC and in the test with HepG2 was “inactive” in each case. Further, in the test with S. aureus RN4220, the growth inhibition call was “inactive”.

`Cc1noc(C)c1NC(=O)N(C)C[C@@H]1OCCCC[C@@H](C)Oc2ccc(NC(=O)c3ccccc3)cc2C(=O)N([C@H](C)CO)C[C@H]1C`: the cytotoxicity call in the test on HSkMC and in the test on HepG2 was “inactive” in each case. Also, the growth inhibition call in the test with S. aureus RN4220 is “inactive”.

With `C[C@@H]1CCCCO[C@H](CN(C)C(=O)Nc2ccc(C(F)(F)F)cc2)[C@@H](C)CN([C@H](C)CO)C(=O)c2cc(N(C)C)ccc2O1`, the cytotoxicity call in the test on HSkMC and with HepG2 was “inactive” in each case. The growth inhibition call in the test with S. aureus RN4220 is “inactive”.

Consider `COc1ccc(S(=O)(=O)N(C)C[C@@H]2OCCCC[C@@H](C)Oc3ccc(NC(=O)Nc4cccc5ccccc45)cc3C(=O)N([C@@H](C)CO)C[C@@H]2C)cc1`, for which the cytotoxicity call in the test on HSkMC and in the test on HepG2 was “inactive” in each case. Moreover, the growth inhibition call in the test with S. aureus RN4220 is “inactive”.

As for `Cc1noc(C)c1S(=O)(=O)N(C)C[C@H]1Oc2ccc(NC(=O)CCC(F)(F)F)cc2CC(=O)N([C@H](C)CO)C[C@@H]1C`, the cytotoxicity call in the test on HSkMC and in the test with HepG2 was “inactive” each time. For the same compound, in the test with S. aureus RN4220, the growth inhibition call was “inactive”.

Turning to `C[C@H]1CCCCO[C@H](CN(C)C(=O)Nc2ccccc2)[C@@H](C)CN([C@@H](C)CO)C(=O)c2cc(NC(=O)Nc3ccccc3)ccc2O1`, the cytotoxicity call in the test with HSkMC and in the test with HepG2 was “inactive” throughout. In addition, the growth inhibition call in the test with S. aureus RN4220 was “inactive”.

As to `C[C@H]1CN([C@@H](C)CO)S(=O)(=O)c2ccc(C#CC(C)(C)O)cc2O[C@@H]1CN(C)C(=O)C1CCCCC1`, the cytotoxicity call in the test with HSkMC and with HepG2 was “inactive” each time. Further, the growth inhibition call in the test with S. aureus RN4220 is “inactive”.

`C[C@@H]1CCCCO[C@H](CN(C)CC2CCCCC2)[C@H](C)CN([C@H](C)CO)C(=O)c2cc(NC(=O)Nc3ccc(F)cc3)ccc2O1`: the cytotoxicity call in the test with HSkMC and with HepG2 was “active” in each case. In addition, in the test with S. aureus RN4220, the growth inhibition call is “inactive”.

On to `NCc1cn(-c2ccccc2)nc1C12CC3CC(CC(C3)C1)C2`, for which the cytotoxicity call with HSkMC and in the test with HepG2 was “active” in each case. The growth inhibition call in the test with S. aureus RN4220 was “active”.

As to `Cc1ccc(S(=O)(=O)N(C)C[C@H]2OCCCC[C@@H](C)Oc3ccc(NS(C)(=O)=O)cc3C(=O)N([C@@H](C)CO)C[C@@H]2C)cc1`, the cytotoxicity call in the test on HSkMC (human skeletal muscle cells) and with HepG2 was “inactive” in each case. Also, the growth inhibition call with S. aureus RN4220 was “inactive”.

Turning to `C[C@@H]1CN([C@H](C)CO)S(=O)(=O)c2ccc(-c3ccc(C#N)cc3)cc2O[C@@H]1CN(C)C(=O)CN(C)C`, the cytotoxicity call with HSkMC and with HepG2 was “inactive” each time. The growth inhibition call in the test on S. aureus RN4220 is “inactive”.

As to `C[C@H](CO)N1C[C@H](C)[C@@H](CN(C)CC2CCCCC2)Oc2c(NC(=O)c3ccc(-c4nccs4)cc3)cccc2C1=O`, the cytotoxicity call with HSkMC and in the test with HepG2 was “inactive” throughout. In the test with S. aureus RN4220, the growth inhibition call is “inactive”.

Values taken from the antibiotic and cytotoxicity screens of Wong et al. (2023).
